Results taken from PubChem BioAssay AID624417 (National Center for Advancing Translational Sciences (NCATS), 2012).
Among all 410,000 compounds or so, about 6,400 (1.6%) were called active. Inconclusive means that the source gave no clear call. Such entries were picked first, then a sample of the others. The call rests on the fitted dose curve; in most records, active means well fitted inhibition curve with a large enough effect; inconclusive means small, poorly fitted or top-dose-only effect; inactive means no such curve, though single readings can be large or run the other way. Where the call is inconclusive, the potency comes from a doubtful curve fit.

Target: Glucagon-like peptide 1 receptor (Homo sapiens) (UniProt P43220)
Chain of UniProt P43220 (P43220 whole entry, looked up): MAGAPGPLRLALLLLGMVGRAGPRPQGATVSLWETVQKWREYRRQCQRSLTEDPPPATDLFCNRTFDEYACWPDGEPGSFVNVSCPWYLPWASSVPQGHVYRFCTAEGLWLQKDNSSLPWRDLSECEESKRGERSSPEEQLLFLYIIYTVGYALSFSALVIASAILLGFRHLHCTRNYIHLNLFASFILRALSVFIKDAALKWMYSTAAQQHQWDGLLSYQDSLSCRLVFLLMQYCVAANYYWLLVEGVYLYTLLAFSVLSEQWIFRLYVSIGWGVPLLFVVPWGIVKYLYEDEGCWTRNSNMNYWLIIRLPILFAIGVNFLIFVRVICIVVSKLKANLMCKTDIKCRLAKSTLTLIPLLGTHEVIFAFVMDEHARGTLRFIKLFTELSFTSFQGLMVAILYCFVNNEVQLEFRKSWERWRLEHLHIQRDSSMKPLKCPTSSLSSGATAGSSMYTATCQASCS
Experiment: qHTS of GLP-1 Receptor Inverse Agonists (Inhibition Mode); further: nearly all actives have a fitted effect of over 55% in size
Settings: HEK293 GLP-1R CRE-luciferase, luminescence, 24 h, GLP-1R form is constitutively active; activity change, negative = inhibition: at 38.3 µM (top of the series) unless noted
Outline: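 Luminescence readout: a drop in cAMP-driven luciferase signal flags inverse agonism at a constitutively active GLP-1R stably expressed in HEK293. Compound exposure lasted 24 hr at 37 deg C, 5% CO2.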
On the % scale 0 is the no-effect control and ±100 the full control effect; potency means the concentration at half of the fitted maximal effect; tags describe the fitted curve by direction and shape.

Potency, active:
O=C(Oc1c(Cl)cc(Cl)c2cccnc12)c1cccc([N+](=O)[O-])c1 12.6 µM

Potency, inconclusive:
Cc1cc(C)cc(NC(=S)NC(=O)Cc2ccccc2)c1 31.6 µM [inhibitor, partial curve, poor fit]
O=C(c1cccc(C(F)(F)F)c1)N1CCc2c([nH]c3ccccc23)C1C(F)(F)F (stereo not given) 10 µM [inhibitor, partial curve, poor fit]
COc1ccc2c(=O)c(-c3ccccc3)coc2c1 8.91 µM [inhibitor, partial curve, poor fit]
O=C(Cc1ccccc1)NN1C(=O)C2C3C=CC(C3)C2C1=O (stereo not given) 28.2 µM [inhibitor, single point]
CC(C)c1ccc(-c2cc(C(=O)N3CCOCC3)c3cc(Br)ccc3n2)cc1 1.26 µM [inhibitor, full curve, poor fit]
O=C(Nc1ccc(Br)cc1)N1CCCCCC1 31.6 µM [inhibitor, single point]
O=C(Nc1ccc(F)cc1)C(c1cc2ccccc2o1)N1CCN(C(=O)c2ccco2)CC1 (stereo not given) 8.91 µM [inhibitor, partial curve, poor fit]
O=C(CCc1ccccc1)N1CCc2c([nH]c3ccccc23)C1c1ccc(Cl)cc1 (stereo not given) 7.08 µM [inhibitor, partial curve, poor fit]
Cc1oc2ccc(O)c(CN3CCCCC3C)c2c1C(=O)Nc1ccccc1 (stereo not given) 28.2 µM [inhibitor, single point]
CCc1ccc2oc(-c3ccc(OC)cc3)cc(=Nc3cccc(C(=O)O)c3)c2c1 8.91 µM [inhibitor, single point]
CN1CCN(c2ccc(NC(=O)COc3ccccc3[N+](=O)[O-])cc2)CC1 2.51 µM [inhibitor, partial curve, poor fit]
CCc1cc2c3c(c1)C1(C(=O)N3C(C)(C)CC2C)C(C#N)=C(N)N2C(=C1C#N)Nc1ccccc12 (stereo not given) 11.2 µM [inhibitor, partial curve, poor fit]
O=C(OCc1cn([C@H]2C[C@H](c3ccccc3)N(CC3CCCCC3)C[C@@H]2O)nn1)c1ccccc1 11.2 µM [inhibitor, partial curve, poor fit]
Cc1cccc(NC(=S)NCC23C=CC(O2)C2C(=O)N(c4ccc(Cl)cc4)C(=O)C23)c1 (stereo not given) 28.2 µM [inhibitor, single point]
CCOc1cccc(/C=N/NC(=O)c2ccc3c(c2)OCCO3)c1O 1.26 µM [inhibitor, full curve, poor fit]
O=C(N/N=C\c1ccccn1)c1ccccc1O 28.2 µM [inhibitor, single point]
CN1C2CCC1CC(NC(=O)CSc1ccc(Cl)cc1)C2 (stereo not given) 15.8 µM [inhibitor, partial curve, poor fit]
Cc1ccc(Cl)cc1N1CCN(C(=O)c2ccc(CS(=O)(=O)c3ccc(Br)cc3)o2)CC1 25.1 µM [inhibitor, single point]
N=C1C(c2nc(-c3ccc(Cl)cc3)cs2)=C(O)CN1CCCN1CCOCC1 28.2 µM [inhibitor, single point]
Cc1cc(-c2ccc(S(=O)(=O)Nc3cc(Cl)ccc3C)s2)on1 0.891 µM [inhibitor, full curve, poor fit]
COc1ccc(CCNC(=O)c2cc3c(-c4ccc(OC)c(OC)c4)nn(C)c3s2)cc1OC 28.2 µM [inhibitor, single point]
CCOC(=O)/C(=N\Nc1ccccc1Cl)N1CCN(C)CC1 8.91 µM [inhibitor, partial curve, poor fit]
O=C(Nc1ccc(Cl)cc1)N1CCN(Cc2ccc3c(c2)OCO3)CC1 8.91 µM [inhibitor, partial curve, poor fit]
Fc1cc(F)c2nc(Nc3nc4cc5c(cc4s3)OCO5)sc2c1 28.2 µM [inhibitor, single point]
COc1ccc(NC(=O)Cc2ccc(Cl)cc2Cl)cn1 11.2 µM [inhibitor, single point]
CCn1ccnc1CN1CCCCC1C(=O)Nc1ccc(Oc2cccnc2)cc1 (stereo not given) 14.1 µM [inhibitor, partial curve, poor fit]
Cc1ccc(C(=O)Nc2nc(=O)n(C(=O)c3ccccc3Cl)s2)cc1 20 µM [inhibitor, single point]
Cc1ccc(CSc2nnc(CCCCCNC(=O)OC(C)(C)C)o2)cc1 28.2 µM [inhibitor, single point]
Cc1cccc(C(=O)NNC(=O)/C=C/C(=O)O)c1 2.24 µM [inhibitor, full curve, poor fit]
Cc1cccc(N2CCN(C(=O)CNC(=O)c3cccc([N+](=O)[O-])c3)CC2)c1C 10 µM [inhibitor, single point]
CC(C)CNC(=O)COC(=O)c1cncc(Br)c1 28.2 µM [inhibitor, single point]
Cc1ccc(NC(=O)CSC2=C(C#N)C(c3ccc4c(c3)OCO4)C3=C(CCCC3=O)N2)c(C)c1 (stereo not given) 10 µM [inhibitor, partial curve, poor fit]
CS(=O)(=O)c1ccc(-c2csc(C(O)(c3ccccc3)C(F)(F)F)n2)cc1 (stereo not given) 22.4 µM [inhibitor, single point]
COCCNC(=S)N(CCc1c(C)[nH]c2ccc(F)cc12)Cc1ccco1 12.6 µM [inhibitor, single point]
CCOC(=O)C1Sc2[nH]c(=O)sc2C(c2ccc(Cl)cc2)C1C(=O)OCC (stereo not given) 11.2 µM [inhibitor, partial curve]
Cc1nc(CS(=O)(=O)c2ccccc2)cc(Sc2ccc(Cl)cc2Cl)n1 15.8 µM [inhibitor, partial curve, poor fit]
COCc1cccc(-c2csc(C(O)c3ccc(F)c(F)c3)n2)c1 (stereo not given) 14.1 µM [inhibitor, single point]
CCCCCOC(=O)C1=C(C)Nc2ncnn2C1c1cccs1 (stereo not given) 11.2 µM [inhibitor, partial curve, poor fit]
O=C(NC(=S)Nc1cccc(Cl)c1N1CCCCC1)c1ccc2c(c1)OCCO2 2.82 µM [inhibitor, full curve, poor fit]
O=C(Nc1nc(-c2cccs2)cs1)c1ccc(Cl)s1 11.2 µM [inhibitor, partial curve, poor fit]
CCOC(=O)N1CCN(C(=O)c2ccc3nc(-c4ccccc4)c(-c4ccccc4)nc3c2)CC1 0.794 µM [inhibitor, full curve, poor fit]
Cc1ccccc1OCCCCn1c(C2CC(=O)N(c3ccccc3Cl)C2)nc2ccccc21 (stereo not given) 11.2 µM [inhibitor, single point]
CC(C)N(Cc1cn[nH]c1-c1ccc(-c2ccccc2)cc1)Cc1nccn1C 11.2 µM [inhibitor, partial curve, poor fit]
CCNc1ccc(S(=O)(=O)N(C)C)cc1NCC(=O)Nc1ccc(F)c(Cl)c1 15.8 µM [inhibitor, partial curve, poor fit]
CN(CCCC(=O)Nc1ccccc1)S(=O)(=O)c1ccc(Cl)cc1 12.6 µM [inhibitor, single point]
CCOC(=O)c1nn(-c2ccc(F)cc2)c(-c2ccccc2)c1C(=O)c1ccccc1 7.08 µM [inhibitor, partial curve, poor fit]
CC(C)NS(=O)(=O)c1ccc(OCC(=O)Nc2ccc3c(c2)OCO3)c(Cl)c1 12.6 µM [inhibitor, single point]
COc1cccc(NC(=O)C(Sc2nc3ccccc3c(=O)n2CC(C)C)c2ccccc2)c1 (stereo not given) 1 µM [inhibitor, full curve, poor fit]
O=C1/C(=C\c2ccc(Cl)c(Cl)c2)CN(C(=O)CCN2CCOCC2)C/C1=C/c1ccc(Cl)c(Cl)c1 3.55 µM [inhibitor, full curve, poor fit]

Activity change, negative = inhibition, inactive:
COc1ccc(C(CNC(=O)Cc2ccc(Cl)cc2)N2CCOCC2)cc1 (stereo not given) -3.96%
CN(C)C=Nc1ccc2nc3c(cc2c1)[nH]c1ccccc13 12.6%
Cc1ccc(Cl)cc1N1CCN(C(=O)CCn2c(=O)c3cccn3c3cccnc32)CC1 3.39%
COC(=O)C1=C(C)C(c2ccc(OC)cc2)NC(=S)N1 (stereo not given) 0.33%
CCCCCC(=O)Nc1ccc(S(=O)(=O)Nc2nccnc2OC)cc1 21.6%
COCCn1c(SCC(=O)Nc2cccc(C)c2C)nc2c(oc3ccccc32)c1=O 17.8%
CCOC(=O)C1CCCN(c2c(C(=O)c3ccc(C)cc3)cnc3ccc(OCC)cc23)C1 (stereo not given) 11.9%
Cc1ccc(Nc2c(-c3ccc(N4CCOCC4)cc3)nc3c(C)cccn23)cc1 -5.68%
NS(=O)(=O)c1cccc(NC(=S)NC(=O)c2cccc([N+](=O)[O-])c2)c1 6.5%
CCCn1c(CCC(=O)Nc2cccc(C)c2C)nc2cccnc21 9.13%
